Results as given in PubChem BioAssay (NCATS).
The shares of active, inactive and inconclusive entries below differ from those in the screen. Potencies beside an inconclusive call are fits to weak or partial responses and may not hold up. Activity calls are given as the source filed them. Calls follow the shape of the dose curve; as a rule, active = well fitted inhibition curve with a large enough effect; inconclusive = small, poorly fitted or top-dose-only effect, or another doubt; inactive = no such curve, though single readings can be large or run the other way.

Molecular target: DNA polymerase eta (Homo sapiens) (UniProt Q9Y253)
Assay: qHTS for Inhibitors of Polymerase Eta: Confirmatory Assay for Cherry-picked Compounds (AID 720502)
Settings: Pol eta primer extension, TAMRA/BHQ fluorescence, 10 min
How it was run: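 Strand-displacement fluorescence (525 nm excitation, 598 nm emission) was read kinetically at 0 and 10 min after adding 50 nM final TAMRA-reporter/BHQ-2-template substrate. Beforehand, 10 nM Pol eta had been exposed to compound for 15 min at room temperature.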
Potency is read from the fitted curve at half-maximal effect; tags tell the direction and shape of the fitted curve.

Chain of UniProt Q9Y253 (Q9Y253 whole entry, looked up): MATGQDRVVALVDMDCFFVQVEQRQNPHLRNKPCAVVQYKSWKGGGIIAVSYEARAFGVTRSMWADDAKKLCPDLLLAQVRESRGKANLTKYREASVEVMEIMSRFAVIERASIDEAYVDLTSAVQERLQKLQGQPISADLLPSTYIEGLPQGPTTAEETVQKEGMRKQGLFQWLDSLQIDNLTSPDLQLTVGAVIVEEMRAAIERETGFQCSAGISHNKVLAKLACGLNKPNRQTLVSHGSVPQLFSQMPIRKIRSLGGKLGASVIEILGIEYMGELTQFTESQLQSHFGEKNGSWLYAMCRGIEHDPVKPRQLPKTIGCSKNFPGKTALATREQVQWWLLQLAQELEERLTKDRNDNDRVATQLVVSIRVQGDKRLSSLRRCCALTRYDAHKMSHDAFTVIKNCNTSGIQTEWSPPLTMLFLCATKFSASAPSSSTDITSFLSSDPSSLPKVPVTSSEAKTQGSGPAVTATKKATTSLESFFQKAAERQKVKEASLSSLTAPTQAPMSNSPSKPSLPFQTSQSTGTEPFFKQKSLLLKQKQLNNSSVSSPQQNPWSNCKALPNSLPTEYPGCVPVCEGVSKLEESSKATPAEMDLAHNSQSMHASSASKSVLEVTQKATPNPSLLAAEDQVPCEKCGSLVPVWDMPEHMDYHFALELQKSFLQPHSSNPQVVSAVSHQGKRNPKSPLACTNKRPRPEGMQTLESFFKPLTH

Potency, active:
Cc1cc(/C=C(\C#N)C(=O)NCc2ccco2)c(C)n1-c1ccc(C(=O)O)cc1 26.9 µM
Cc1cc(NS(=O)(=O)c2ccc(NC(=O)COc3ccccc3[N+](=O)[O-])cc2)no1 67.5 µM
O=C(O)C1CCCCC1C(=O)Nc1cccc(Br)c1 (stereo not given) 37.9 µM
O=C(Cc1cccs1)OCC(=O)c1ccco1 60.1 µM
Oc1ccc(/C=N/NC(=S)Nc2cccnc2)c(O)c1O 3.01 µM
O=C(CSc1nc(-c2cccc(Cl)c2)nc2cc(=O)[nH]n12)Nc1ccccc1 84.9 µM
O=C(O)CCCC(=O)Nc1ccc(N2CCCC2)cc1 47.8 µM

Potency, inconclusive:
Cc1cc2c(=O)n(Cc3ccco3)c(SCC(=O)NCc3ccco3)nc2s1 84.9 µM [inhibitor, single point]
N#CCc1ccc(NC(=O)/C=C/c2ccc([N+](=O)[O-])o2)cc1 84.9 µM [inhibitor, single point]
O=C(COC(=O)CNC(=O)c1ccc([N+](=O)[O-])o1)Nc1ncc(Cl)cc1Cl 84.9 µM [inhibitor, single point]
COc1cc(/C=N/NC(=O)C(Cc2c[nH]c3ccccc23)NC(=O)OCc2ccccc2)cc([N+](=O)[O-])c1O (stereo not given) 95.3 µM [inhibitor, single point]
O=C(N/N=C/c1ccc(O)c(O)c1)c1ccc(-n2cnnn2)cc1 75.7 µM [inhibitor, single point]
COc1ccc(C2=NN(c3nc(-c4ccccc4)c(CC(=O)O)s3)C(c3ccco3)C2)cc1 (stereo not given) 75.7 µM [inhibitor, partial curve, poor fit]
CSc1ccc(/C=C2\CCn3c2nc2cc(C(=O)O)ccc2c3=O)cc1 95.3 µM [inhibitor, single point]
CC(=O)n1cc(N(C(=O)CCl)c2ccc(Cl)cc2)c2ccccc21 84.9 µM [inhibitor, single point]
Cc1occc1-c1nnc(SCC(=O)NCc2ccco2)n1CC(C)C 84.9 µM [inhibitor, single point]
Cc1ccc(C)n1-c1cccc(-c2nn[nH]n2)c1 84.9 µM [inhibitor, single point]
Cc1ccccc1N1C(S)=C(C#N)C(=O)NC1c1ccco1 (stereo not given) 95.3 µM [inhibitor, single point]
Cn1nc(-c2ccc(C(=O)Nc3ccc(F)cc3)cc2)c2ccccc2c1=O 84.9 µM [inhibitor, single point]
O=C(ONc1ccc(N=NC(=O)c2ccccc2O)cc1)c1ccccc1 95.3 µM [inhibitor, single point]
CC1Cc2ccccc2N1S(=O)(=O)c1nnc(NC(=O)c2ccccc2Br)s1 (stereo not given) 95.3 µM [inhibitor, single point]
O=C1c2cc(O)cc(O)c2C(=O)c2c1cc(O)c([C@@H](CO)CCO)c2O 84.9 µM [inhibitor, single point]
CCN(CC)c1ccc(NC(=O)CSc2ccsc2[N+](=O)[O-])c(C)c1 60.1 µM [inhibitor, partial curve, poor fit]
NC(=O)c1c(NC(=O)C2c3ccccc3Oc3ccccc32)sc2c1CCCCC2 84.9 µM [inhibitor, single point]
Cc1ccc2cc(/C=N/NC(=O)c3ccccc3O)c(Cl)nc2c1 42.6 µM [inhibitor, partial curve, poor fit]
O=C(COC(=O)c1ccc(O)cc1O)Nc1ncc(Cl)cc1Cl 84.9 µM [inhibitor, single point]
O=C(O)CCCCCN1C(=O)/C(=C\c2cn(-c3ccccc3)nc2-c2cccs2)SC1=S 84.9 µM [inhibitor, single point]
O=C(/C=C\c1ccco1)NC(=S)Nc1ccccc1O 84.9 µM [inhibitor, single point]
CCOc1ccc(Nc2nc(Cc3nnc(SCC(=O)O)o3)cs2)cc1 84.9 µM [inhibitor, single point]
O=C(Nc1ccc(S(=O)(=O)Nc2nccs2)cc1)/C(=C/c1ccccc1Cl)NC(=O)c1ccccc1 16.9 µM [inhibitor, partial curve]
Cc1ccc(NC(=O)C(C)OC(=O)c2cc(=O)[nH]c3ccccc23)cc1S(=O)(=O)N1CCOCC1 (stereo not given) 75.7 µM [inhibitor, partial curve]
COc1cc(Cl)cc(C2NC(=O)NC(C)=C2C(C)=O)c1OCC(=O)O (stereo not given) 95.3 µM [inhibitor, single point]
COc1ccc(N2CC(C(=O)Nc3nnc(SCC(=O)NCc4ccco4)s3)CC2=O)cc1 (stereo not given) 84.9 µM [inhibitor, single point]
CSc1ccc(/C=C2/C(=N)N3N=C(CC(=O)N4CCCC4)SC3=NC2=O)cc1 84.9 µM [inhibitor, single point]
O=C(O)/C=C/c1ccc(S(=O)(=O)Nc2ccc(C(=O)NCC(=O)O)cc2)cc1 84.9 µM [inhibitor, single point]
CC(=O)N=c1c(C#N)cc2c(=O)n3cccc(C)c3nc2n1Cc1ccco1 84.9 µM [inhibitor, single point]
CCOc1nc(Nc2ccc(OC)cc2)nc(OCC)n1 84.9 µM [inhibitor, single point]
CSc1nnc(-c2ccco2)c(-c2ccco2)n1 84.9 µM [inhibitor, single point]
O=C(COC(=O)Cc1ccc(S(=O)(=O)N2CCOCC2)s1)NCCc1ccccc1 84.9 µM [inhibitor, single point]
Cc1[nH][nH]c(=O)c1C(c1ccc(-c2ccc(C(=O)O)cc2)o1)c1c(C)[nH][nH]c1=O 95.3 µM [inhibitor, single point]
